# In PubChem BioAssay AID588342 (National Center for Advancing Translational Sciences (NCATS), 2011):
# Among all 360,000 compounds or so, about 25,000 (6.9%) were called active. The inconclusive results got no clear call from the source; some entries with a clear call stand among them for comparison. Calls come from the whole dose curve; as a rule, active = well fitted inhibition curve with a large enough effect; inconclusive = small, poorly fitted or top-dose-only effect; inactive = flat fitted curve, though single readings scatter. Potencies beside an inconclusive call are fits to weak or partial responses and may not hold up.
# Biological target: Luciferin 4-monooxygenase (Photinus pyralis) (UniProt P08659)
# Assay: qHTS profiling assay for firefly luciferase inhibitor/activator using purifed enzyme and Km concentrations of substrates (counterscreen for miR-21 project); note: nearly all actives have a fitted effect of over 55% in size
# Settings: purified FLuc, luminescence inhibition; series mostly up to 57.5 µM
# In short: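 Purified P. pyralis luciferase (10nM final) with 10uM D-luciferin and 10uM ATP (Km levels) in 50mM Tris acetate pH 7.5, 10mM Mg acetate, 0.01% Tween-20, 0.05% BSA; qHTS 6-point titration, ~60 µM downward; luminescence read.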
# Potency is the fitted concentration of half-maximal effect; tags give direction and shape of the fitted curve.
# UniProt P08659, sequence (P08659 whole entry, looked up): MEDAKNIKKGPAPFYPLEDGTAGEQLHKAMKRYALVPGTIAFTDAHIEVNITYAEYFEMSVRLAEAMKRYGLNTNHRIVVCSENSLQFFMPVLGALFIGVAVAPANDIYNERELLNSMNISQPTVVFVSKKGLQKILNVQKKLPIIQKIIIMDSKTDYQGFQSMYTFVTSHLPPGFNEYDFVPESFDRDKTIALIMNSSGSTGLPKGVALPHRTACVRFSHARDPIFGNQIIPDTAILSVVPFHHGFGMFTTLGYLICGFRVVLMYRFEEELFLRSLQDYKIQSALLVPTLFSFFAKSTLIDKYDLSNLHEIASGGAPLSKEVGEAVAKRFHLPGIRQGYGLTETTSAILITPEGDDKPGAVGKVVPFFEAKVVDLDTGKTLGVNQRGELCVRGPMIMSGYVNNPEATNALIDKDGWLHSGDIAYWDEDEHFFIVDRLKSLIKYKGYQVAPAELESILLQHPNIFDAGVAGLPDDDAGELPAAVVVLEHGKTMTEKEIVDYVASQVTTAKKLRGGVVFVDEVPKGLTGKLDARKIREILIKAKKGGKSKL
row,SMILES,Potency
1,CCN(CC(=O)Nc1c(F)cccc1F)C(=O)c1cccc(-n2cccc2)c1,inactive
2,CCOC(=O)CNC(=O)Nc1cc(C(=O)NCc2ccc(C(C)C)cc2)ccc1N1CCCC1,"inconclusive: 15.1 µM [inhibitor, partial curve, poor fit]"
3,Cc1cc(OCC(=O)Nc2sc3c(c2C#N)CCC(C)C3)ccc1Cl (stereo not given),inactive
4,COc1ccccc1-c1noc(CSc2nnc(-c3ccccc3)n2-c2ccc(C)c(C)c2)n1,inactive
5,Cc1cccc(NC(=O)c2ccoc2C)n1,"inconclusive: 37.9 µM [inhibitor, single point]"
6,CCN1C(=O)S/C(=C/c2ccsc2)C1=O,"inconclusive: 23.9 µM [inhibitor, partial curve]"
7,Cc1nnc(NC(=O)c2cc3ccccc3o2)s1,active: 6.01 µM
8,CC(C)c1ccc(/C=C/C2=NNC(=O)CC2)cc1,active: 5.36 µM
9,CC1=NN(c2ccccc2)C(=O)C1N=Nc1cccc(O)c1 (stereo not given),active: 8.49 µM
10,O=C(Nc1ccccc1Cl)NC1CCCCCCC1,active: 13.5 µM
11,COc1cccc(/C=N/NC(=S)NCc2ccco2)c1OC,inactive
12,Cc1ccc(NC(=O)CNCc2ccccc2Cl)cc1S(=O)(=O)N(C)C,"inconclusive: 21.3 µM [inhibitor, single point]"
13,Cc1ccc(S(=O)(=O)N2CCCc3cc(NS(=O)(=O)c4ccccc4)ccc32)cc1,inactive
14,Cc1ccc(-c2n[nH]c3c2CCC3)cc1,"inconclusive: 26.9 µM [inhibitor, single point]"
15,CCN(CC)c1ccc(/C=N/NC(=O)c2cnccn2)c(O)c1,active: 9.53 µM
16,O=C(/C=C/Nc1ccc(Br)cn1)c1cccc(OC(F)F)c1,active: 2.69 µM
17,O=C(c1cc(-c2cccs2)on1)N1CCN(c2ccccc2)CC1,active: 16.9 µM
18,COc1ccccc1-c1coc2cc(O)cc(O)c2c1=O,active: 21.3 µM
19,O=C(Nc1ccc(C(=O)N2CCOCC2)cc1)Nc1cccc2ccccc12,active: 15.1 µM
20,Cc1ccc(NC(=O)CCN2C(=O)c3ccccc3C2=O)cc1C,"inconclusive: 37.9 µM [inhibitor, partial curve, poor fit]"
21,O=C(NCCN1CCCC1)c1cc(-c2ccncc2)nc2ccc(S(=O)(=O)N3CCOCC3)cc12,inactive
22,C/C(=N\NC(=O)c1ccc([N+](=O)[O-])c(C)c1)c1ccccc1Cl,"inconclusive: 23.9 µM [inhibitor, partial curve, poor fit]"
23,NC(=O)C1CCN(c2nc(-c3cccc(F)c3)cs2)CC1,"inconclusive: 37.9 µM [inhibitor, single point]"
24,CN(C(=O)CN1C(=O)/C(=C/c2ccc(Cl)cc2)SC1=S)C1CCS(=O)(=O)C1 (stereo not given),"inconclusive: 15.1 µM [inhibitor, partial curve]"
25,CC(C)c1ccc(NC(=O)c2cc(S(=O)(=O)N3CCc4ccccc4C3)ccc2F)cc1,inactive

row,SMILES,Potency
1,Cc1nn(-c2ccc(N3CCCC3)nn2)c(C)c1CCC(=O)Nc1ccccc1,inactive
2,c1ccc(CCc2cc3ccccc3[nH]2)cc1,"inconclusive: 16.9 µM [inhibitor, single point]"
3,CNc1ccc(/C=C/C(=O)c2cccc3ccccc23)cc1[N+](=O)[O-],"inconclusive: 15.1 µM [inhibitor, partial curve]"
4,CC(C)c1ccc(C(=O)Nc2cccnc2)cc1,active: 3.38 µM
5,Cc1ccc(-n2[nH]c(C)c(C=Nc3cc(C)ccn3)c2=O)cc1,"inconclusive: 30.1 µM [inhibitor, single point]"
6,O=c1c2c(-c3cccc([N+](=O)[O-])c3)ccnc2[nH]n1-c1ccccc1,"inconclusive: 6.75 µM [inhibitor, partial curve, poor fit]"
7,COc1ccc(NC(=O)NC2CCCc3ccccc32)cc1OC (stereo not given),"inconclusive: 2.39 µM [inhibitor, partial curve]"
8,COc1ccc(C(=O)Nc2nc(C)c(C(=O)N(C)C)s2)cc1OC,active: 13.5 µM
9,Cc1[nH]nc2c1C(c1ccsc1)C1=C(CC(C)(C)CC1=O)N2 (stereo not given),inactive
10,COc1ccc(NC(=O)C2=CC(c3ccc(OC)cc3)=NS(=O)(=O)N2C)cc1,"inconclusive: 21.3 µM [inhibitor, partial curve, poor fit]"
11,Cn1cc(CC(=O)NCc2ccc(F)cc2)c2ccccc21,"inconclusive: 33.8 µM [inhibitor, single point]"
12,O=C(N/N=C\c1cc(Br)c(Br)o1)C1COc2ccccc2O1 (stereo not given),"inconclusive: 30.1 µM [inhibitor, single point]"
13,CCC(=O)Nc1cccc(NC(=O)c2ccc3c(c2)OCCO3)c1,active: 16.9 µM
14,CC(C)CCn1c(Oc2ccc(Cl)cc2)nc2c1c(=O)n(C)c(=O)n2C,inactive
15,CCOc1ccc2nc3c(cc2c1)CN(CCCO)C(=NCCOC)S3,"inconclusive: 26.9 µM [inhibitor, partial curve, poor fit]"
16,C=CCOc1ccc(/C=C/C(=O)OCC(=O)N(C)C2CCS(=O)(=O)C2)cc1 (stereo not given),"inconclusive: 21.3 µM [inhibitor, single point]"
17,NC(=O)C1CCN(C2=C(Cl)C(=O)c3ccccc3C2=O)CC1,"inconclusive: 30.1 µM [inhibitor, partial curve, poor fit]"
18,CCCCn1c(N)c(N(CC(C)C)C(=O)CN(C)Cc2cccc(OC)c2)c(=O)[nH]c1=O,inactive
19,N#Cc1nc(-c2ccco2)oc1NCCc1ccccc1,"inconclusive: 26.9 µM [inhibitor, single point]"
20,Cc1cc(N2CCN(C)CC2)nc2ccc(NC(=O)Nc3ccc(F)cc3F)cc12,"inconclusive: 4.26 µM [inhibitor, full curve]"
21,COC(=O)[C@H](Cc1ccccc1)NC(=O)N1CCN(c2ccc(F)cc2)CC1,inactive
22,c1cncc(C2Nc3ccccc3-c3nc4ccccc4n32)c1 (stereo not given),"inconclusive: 37.9 µM [inhibitor, single point]"
23,COc1ccc(-c2cc(-c3cc(OC)ccc3O)[nH]n2)cc1,active: 23.9 µM
24,Nc1cccc(-c2nc3ncccc3o2)c1,"inconclusive: 30.1 µM [inhibitor, partial curve, poor fit]"
25,O=C(O)c1cccc(NS(=O)(=O)c2ccc3c(c2)OCCCO3)c1,"inconclusive: 37.9 µM [inhibitor, partial curve, poor fit]"

row,SMILES,Potency
1,Oc1ccccc1-c1cc(C(F)(F)C(F)F)[nH]n1,"inconclusive: 13.5 µM [inhibitor, partial curve, poor fit]"
2,COc1cccc(-c2ccc3c(N)c(C(=O)c4ccc(F)cc4)sc3n2)c1,inactive
3,O=C(Nc1csc(Cc2c(Cl)cccc2Cl)n1)NN1CCOCC1,inactive
4,O=C1c2ccccc2C(=O)N1CC(O)COc1ccccc1Cl (stereo not given),active: 10.7 µM
5,CCC(=O)Nc1cccc(NC(=O)c2cc3ccccc3o2)c1,active: 2.39 µM
6,CC(NC(=O)CCCN1C(=O)CCn2nc(-c3cn(C)c4ccccc34)cc21)c1ccccc1 (stereo not given),inactive
7,O=C(COC(=O)c1ccccc1-n1cnnn1)c1ccc(F)c(F)c1,"inconclusive: 26.9 µM [inhibitor, single point]"
8,COc1ccc(CNc2ncnc3c2cnn3-c2ccc(Cl)cc2)cc1,inactive
9,O=C(O)c1ccc2c(c1)N(Cc1ccc(F)cc1)C(=O)c1ccccc1S2,"inconclusive: 21.3 µM [inhibitor, partial curve]"
10,COc1ccc(-c2csc(NC(=O)COC(=O)c3ccco3)n2)cc1,"inconclusive: 15.1 µM [inhibitor, partial curve]"
11,Cn1c(=S)n(/N=C/c2ccc3c(c2)OCO3)c2ccccc21,"inconclusive: 19 µM [inhibitor, partial curve]"
12,Cc1ccc(C(=O)Nc2nnc(-c3ccncc3)o2)cc1,"inconclusive: 37.9 µM [inhibitor, partial curve, poor fit]"
13,O=C(NCCc1ccccc1)c1ccc(Cl)cc1[N+](=O)[O-],"inconclusive: 26.9 µM [inhibitor, partial curve]"
14,COc1ccc(-c2c[n+]3c(n2-c2ccccc2)CCCCC3)cc1,inactive
15,COc1ccc(SCc2noc(C(=O)NCC3CCCO3)c2C(=O)O)cc1 (stereo not given),"inconclusive: 42.6 µM [inhibitor, partial curve, poor fit]"
16,CCOc1ccc(S(=O)(=O)Nc2cccc(-c3ccc(N4CCC(C)CC4)nn3)c2)cc1,active: 2.69 µM
17,N#C/C(=C\c1ccc(C#N)cc1)C(=O)c1ccccc1,"inconclusive: 16.9 µM [inhibitor, partial curve, poor fit]"
18,CCN1CCN(c2ncnc3c2cnn3-c2cccc(C)c2)CC1,"inconclusive: 37.9 µM [inhibitor, partial curve, poor fit]"
19,O=C(Nc1ccc(Br)cc1)N1CCCCCCC1,"inconclusive: 9.53 µM [inhibitor, partial curve]"
20,COc1ccc(C2CC(c3ccccc3)=NN2c2ccc(/C=N/NC(=O)c3ccncc3)cc2)cc1 (stereo not given),"inconclusive: 26.9 µM [inhibitor, partial curve, poor fit]"
21,O=C(NC1CCCC1)c1ccc2nc[nH]c2c1,inactive
22,CC(=O)c1cccc(NC(=O)c2onc(C)c2Cl)c1,inactive
23,COc1ccc(C(=O)NCc2ccc3c(c2)CCN3C(=O)c2ccc(F)cc2)cc1,"inconclusive: 23.9 µM [inhibitor, partial curve, poor fit]"
24,COc1ccc(C)c2sc(NC(=O)c3ccc(S(=O)(=O)N4CCCC4)cc3)nc12,inactive
25,COc1ccc(CCn2c(-c3ccco3)nc3nc4ccccc4nc32)cc1OC,"inconclusive: 23.9 µM [inhibitor, partial curve, poor fit]"
